The values that follow come from ChEMBL document CHEMBL1201862, “PubChem BioAssay data set” (2004).

SMILES strings stand for the structures.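 48-hour exposure; five concentrations; linearly interpolated endpoints. The concentration for 50% growth inhibition is given as GI50.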 Activity calls are given as the source filed them. Rule as the data show it: active = GI50 up to about 1.1 µM and inactive = higher.

This experiment has as its system NCI-H322M. Kind of experiment: growth of human tumour cells (NCI), 48 h.
Consider `Cc1ccc2c(O)cc(-c3cc4ccccc4s3)nc2n1`, for which the GI50 was inactive: 62.2 µM.

With `c1ccc(CNCCN2CCNCC2)nc1`, the GI50 was inactive: > 100 µM.

For `CN1CCc2[nH]nc(-c3n[nH]c4c3CN(C)CC4)c2C1`, the GI50 was inactive: > 100 µM.

On to `NC(=O)N/N=C/c1ccccc1O`, for which the GI50 is inactive: > 100 µM.

With `CSC1=N/C(=C\c2ccc(Cl)cc2)C(=O)N1CN1CCCCC1`, the GI50 was inactive: 50.1 µM.

On to `N#Cc1c(N2CCCC2)ncn(Cc2ccccc2)c1=O`, for which the GI50 is inactive: > 100 µM.

`CCOC(=O)/C=C/CCO[Si](C)(C)C(C)(C)C`: the GI50 was inactive: > 100 µM.

With `CCOC(=O)C1([Se]c2ccccc2)CCCC1=O` (centres undefined), the GI50 is inactive: > 100 µM.

Consider `CCCC(=O)OCC1OC(n2ccc(N)nc2=O)C(OC(=O)CCC)C1OC(=O)CCC` (centres undefined), for which the GI50 is inactive: > 100 µM.

For `Cc1[nH]c2c(c1C)S(=O)(=O)c1cc3ccccc3nc1N2`, the GI50 is inactive: 36.6 µM.

On to `CC(C)CC(O)P(=O)(O)O.NC1CCCCC1` (centres undefined), for which the GI50 is inactive: > 100 µM.

In the case of `Cc1cc(OCc2nnc3n2N=C(c2cc(F)c(Cl)cc2Cl)/C(=C/c2ccc(Cl)cc2)S3)ccc1Cl`, the GI50 is inactive: 38.7 µM.

For `[O-][S+]1CC[S+]([O-])CC[S+]([O-])CC1` (centres undefined), the GI50 was inactive: > 100 µM.

Consider `O=C(Nc1nnc(-c2c(Cl)c(Cl)c(Cl)c(Cl)c2-c2nc3cc(C(=O)c4ccccc4)ccc3[nH]2)o1)c1ccccc1`, for which the GI50 is inactive: 18.7 µM.

Regarding `C=C(CS(=O)(=O)c1ccccc1)C(=O)OCC`, the GI50 is inactive: 16.5 µM.

In the case of `COc1cc(C2c3cc4c(cc3OC(C)(O)C2C)OCO4)cc(OC)c1OC` (centres undefined), the GI50 is active: 0.4 µM.

Consider `Cc1nc2c(sc3nc4c(cc32)CCC4)c(=O)o1`, for which the GI50 was inactive: > 100 µM.

As for `O=C(/C=C\c1cccc2ccccc12)c1ccc(Cl)cc1Cl`, the GI50 was inactive: > 100 µM.

With `CC(=O)c1ccc(/N=N/N2CCCC2)cc1`, the GI50 is inactive: > 100 µM.

For the compound `CC1(C)C2CCC1(C)C(N/C(Sc1ccccc1)=C(/C(Cl)=C(Cl)Cl)[N+](=O)[O-])C2` (centres undefined), the GI50 is inactive: 17.7 µM.

With `COc1cc2c(cc1OC)C(CCN)=NCC2`, the GI50 is inactive: > 63.2 µM.

Turning to `Cc1c(C(=O)CC(=O)C(=O)Nc2ccc(Cl)cc2)[n+]([O-])c2ccccc2[n+]1[O-]`, the GI50 is inactive: > 100 µM.

As for `CC(=O)OCC(Br)C1(C)CCC(C(C)(C)Br)O1` (centres undefined), the GI50 is inactive: > 100 µM.

For the compound `Cn1cnc([N+](=O)[O-])c1[Se]c1ncnc2nc[nH]c12`, the GI50 was inactive: 4.31 µM.

For the compound `Cc1[nH]c2ccccc2c1C1Cc2ccccc2N1C(=O)/C=C\C(=O)O` (centres undefined), the GI50 is inactive: 51.3 µM.

Regarding `C1=CCC[C@@H]2CN3CCCC/C=C\CCCC[C@H]4C[C@H](CN(CCCCCCCC1)C4)[C@H]2CC3`, the GI50 is inactive: 7.91 µM.

In the case of `Cc1n[nH]c(=O)c2c3c([nH]c12)-c1ccccc1C3`, the GI50 was inactive: > 100 µM.

As for `CCCCCCCCCCCCOCCCOP(=O)([O-])OCC[N+](C)(C)C`, the GI50 is inactive: 80.2 µM.

Take `CN(C)c1ccc(/C=C2\N=C(c3ccccc3)N(c3nc4ccc(Sc5ccccc5)cc4[nH]3)C2=O)cc1`: the GI50 was inactive: 52.5 µM.

As to `Cn1c2ccccc2c(=NNc2ccc(S(=O)(=O)N=C(N)N)cc2)c2ccccc21`, the GI50 is inactive: 5.35 µM.

`COc1ccc(/C=C2\C(=O)N(C3OC(COC(C)=O)C(OC(C)=O)C(OC(C)=O)C3OC(C)=O)c3ccccc3N=C2N)cc1` (centres undefined): the GI50 was inactive: 32.1 µM.

For the compound `CC(C)CC1C(=O)NCCC(NC(=O)C(N)Cc2ccc(O)cc2)C(=O)NC(Cc2ccccc2)C(=O)NC(Cc2ccccc2)NC1=O` (centres undefined), the GI50 was inactive: > 100 µM.

For `Nc1ncnc2c1ncn2C1C=CC(CP(=O)(O)O)C1` (centres undefined), the GI50 is inactive: > 100 µM.

On to `c1ccc2c(CNCCCCCCCCCCCCNCc3cccc4ccccc34)cccc2c1`, for which the GI50 was inactive: 1.79 µM.
